Results on 111 compounds are retold here after PubChem BioAssay AID488969 (Vanderbilt High Throughput Screening Facility, 2010).

Over roughly 110,000 compounds, “z-score” has its median near -0.1; the highest 2% begin near 2. The list shows a part of the results. Active and inactive are the calls of the source.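 How the source made its calls: active means z-score in the third read window above 3 or below -3; inactive means the rest.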

This experiment addresses Metabotropic glutamate receptor 8 (Rattus norvegicus) (UniProt P70579). In words: rat mGluR8 modulators via GIRK flux, primary screen, cell-based, thallium flux, HTS (AID 488969). The conditions noted are these: HEK293 rat mGluR8, GIRK (G protein-gated inwardly rectifying potassium channel) thallium flux, FluoZin2; at 10 µM; stronger effect = higher value; submaximal glutamate (EC20) added with thallium.
Chain of UniProt P70579 (P70579 whole entry, looked up): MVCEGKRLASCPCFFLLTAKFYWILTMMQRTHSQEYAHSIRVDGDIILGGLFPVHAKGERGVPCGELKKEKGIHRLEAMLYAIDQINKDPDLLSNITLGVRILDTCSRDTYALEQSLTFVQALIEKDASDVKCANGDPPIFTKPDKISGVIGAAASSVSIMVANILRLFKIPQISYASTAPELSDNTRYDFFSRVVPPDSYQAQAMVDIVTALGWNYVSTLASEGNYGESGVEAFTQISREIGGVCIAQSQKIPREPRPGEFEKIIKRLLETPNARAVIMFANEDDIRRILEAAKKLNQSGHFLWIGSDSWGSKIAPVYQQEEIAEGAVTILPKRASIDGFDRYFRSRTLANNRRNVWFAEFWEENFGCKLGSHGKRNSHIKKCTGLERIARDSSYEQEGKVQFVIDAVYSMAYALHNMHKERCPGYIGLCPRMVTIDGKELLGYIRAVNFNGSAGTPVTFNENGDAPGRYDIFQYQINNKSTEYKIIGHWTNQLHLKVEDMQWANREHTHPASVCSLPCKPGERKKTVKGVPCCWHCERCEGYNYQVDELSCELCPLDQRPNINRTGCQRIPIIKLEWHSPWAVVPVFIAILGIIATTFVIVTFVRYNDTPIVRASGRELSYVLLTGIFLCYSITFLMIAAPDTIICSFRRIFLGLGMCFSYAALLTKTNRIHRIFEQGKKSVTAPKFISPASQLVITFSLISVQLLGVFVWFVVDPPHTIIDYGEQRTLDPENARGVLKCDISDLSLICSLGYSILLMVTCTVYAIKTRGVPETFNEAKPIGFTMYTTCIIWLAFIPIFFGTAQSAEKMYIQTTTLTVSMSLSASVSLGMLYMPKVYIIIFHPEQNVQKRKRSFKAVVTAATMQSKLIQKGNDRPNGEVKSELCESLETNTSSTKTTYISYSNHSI
On to `COc1ccc(-c2nc(-n3c(C)c(C(C)=O)c(C(C)=O)c3C)sc2C)cc1`, for which the z-score was -0.845. Next, `CCNC(=O)NC(=O)COC(=O)CCCSc1nc2ccccc2[nH]1`: active: 3.23; `COc1ccc(C2NC(=O)NC(C)=C2C(=O)Nc2cccc(C)c2C)cc1` (stereo unspecified): -0.168. On to `O=C(Cn1cnc2ccc(Cl)cc2c1=O)c1cccs1`, for which the z-score stood at 0.277. The result for `CCCCN(C)CCNC(=O)c1ccc2c(c1)NC(=O)C(N1CCCCC1)S2` (stereo unspecified) reads 0.0831. Next, `Cc1ccc(NC(=O)N(Cc2cccs2)Cc2cc3cc4c(cc3[nH]c2=O)OCO4)cc1`: -0.337; `Nc1ccccc1NC(=O)c1ccccc1N`: 0.194. Compound `Cc1cc(=O)oc2cc(OCC(=O)N3CC(C)OC(C)C3)ccc12` (stereo unspecified) displayed a z-score of -0.122. Next, `CCS(=O)(=O)N1CCN(S(=O)(=O)c2ccc(F)cc2)CC1`: -0.0262. The result for `Cc1[nH]n(-c2ccccc2)c(=O)c1N=Nc1nccs1` reads active: 14.8; that for `N#CCN1CCC/C1=C\[N+](=O)[O-]`, -0.0261; that for `FC(F)(F)c1ccccc1NC(=S)NN1CCOCC1`, 0.379. Next, `NC(=O)c1cccc2c1C(=O)N(C1CCCCC1)C2`: -0.392. Turning to `Nc1cc(=O)[nH]c(=S)n1-c1ccccc1`, the z-score is -0.0667. `CCC(=O)NCc1cc(-c2nn(C)c(=O)c3ccccc23)ccc1C` showed a z-score of -0.415. Next, `COc1cc(OC)c(OC)cc1/C=N/NC(=O)CC1C(=O)NN=C1C` (stereo unspecified): -0.0262; `CCCC(=O)NCCCc1nc2ccccc2n1CCC`: 0.81. With `Cc1ccc(C(=O)CC(=O)c2cc(Cl)ccc2O)cc1`, the z-score is active: 7.14.

Turning to `Cc1ccc(NC(=O)c2cc(N3C(=O)C4CC=CCC4C3=O)ccc2N2CCOCC2)cc1Cl` (stereo unspecified), the z-score was -0.529. The result for `O=C1N(CC(=O)N2CCc3ccccc32)CCN1Cc1ccccc1Cl` reads 0.288; that for `Cc1nc2cc(-c3cccs3)[nH]n2c(=O)c1C`, -0.15.

Regarding `COc1ccc(-c2c(C(C)=O)c(C)nc3sc4c(=O)[nH]nnc4c23)cc1`, the z-score is -0.191. The result for `CCC1CCCCN1CCCn1c(=S)[nH]c2ccccc2c1=O` (stereo unspecified) reads active: 7.04; that for `COc1ccc(-c2noc(CSc3nnc(-c4ccncc4)n3-c3ccc(F)cc3)n2)cc1OC`, -0.81; that for `NC(=O)c1ccccc1OCC(=O)O`, -0.243. As to `Cc1cc(C(F)(F)F)nc(SCC(=O)Nc2ccccc2)n1`, the z-score was -0.417. Regarding `CCOC(=O)C1CCCN(c2c(Nc3ccc(OCC)cc3)c(=O)c2=O)C1` (stereo unspecified), the z-score is -0.278. Turning to `CCOC(=O)C(NCc1ccccc1)(NC(=O)c1ccccc1)C(F)(F)F` (stereo unspecified), the z-score amounted to 0.0476. Next, `CCOC(=O)c1ccc(NC(=S)NCC(O)c2ccccc2)cc1` (stereo unspecified): -0.123; `O=C(Nc1nc2ccc(Cl)cc2s1)c1ccc(Br)o1`: active: 6.8; `CC(C)(C)C1CCc2c(sc(NC(=O)C3CCCO3)c2C(N)=O)C1` (stereo unspecified): -0.0203. Next, `Cc1cc(S(=O)(=O)N2CCN=C2c2ccccc2)c(C)cc1Cl`: -0.0893. For `Brc1ccc(C2=Nn3c(nnc3-c3ccncc3)SC2)cc1`, the z-score is -0.243.

For the compound `CCC(C)N1C(=O)CCC1C(=O)NCc1ccc2c(c1)OCO2` (stereo unspecified), the z-score was -0.368.

Regarding `CCOC(=O)c1c(NC(=O)CSc2n[nH]c(-c3ccco3)n2)sc(C)c1C`, the z-score is -0.662. The result for `CS(=O)(=O)N(CC(=O)NC1CCCC1)c1ccc2c(c1)OCCO2` reads 0.443; that for `CCCn1c2c(c(O)c(C(=O)Nc3ccc(OC)cc3)c1=O)CCCC2`, -0.197; that for `CN(C)S(=O)(=O)c1c(Cl)cccc1Cl`, 1.61. Next, `CCC(=O)NCCCOc1ccccc1`: 0.0285; `N=c1sccn1CC(=O)N1CCc2ccccc21`: -0.185. Next, `Nc1c(N=Nc2ccccc2F)c(=O)[nH]n1-c1ccccc1`: 0.112. In the case of `NC(=O)CSCc1c(Cl)cccc1Cl`, the z-score came to 0.2. Next, `O=C(Nc1ccccc1N1CCN(C(=O)c2ccc(Cl)cc2)CC1)c1ccc2c(c1)OCO2`: -0.293; `CC1(C)Cc2c(ccc3ccccc23)C(NNC(=O)c2cccnc2)=N1`: 0.408; `CC(=O)CSc1nc2ccccc2s1`: 0.278. The result for `Cc1cccc(N(C(=O)Cn2nnc3ccccc32)C(C(=O)NC(C)(C)C)c2ccsc2)c1C` (stereo unspecified) reads -0.318; that for `COc1cc2c(cc1OC)C(c1ccc(N(C)C)cc1)CC(=O)N2` (stereo unspecified), -0.191.

As for `O=C(NCc1ccco1)C1CCCN(S(=O)(=O)c2cccc3nonc23)C1` (stereo unspecified), the z-score is -0.981. `CC(=O)c1ccc(OC(=O)N(c2ccccc2)c2ccccc2)cc1` came in with a z-score of 2.99. The result for `CC(Sc1c[nH]c2ccccc12)C(=O)O` (stereo unspecified) reads 1.56; that for `COc1ccc(NCc2nc3ccccc3n2CCOc2ccccc2)cc1`, -0.295. Next, `CCn1cc(Br)c(C(=O)NC(C)c2ccccc2)n1` (stereo unspecified): -0.307; `O=C(Nc1nccs1)C1Cc2ccccc2CN1S(=O)(=O)c1ccc(F)cc1` (stereo unspecified): -0.168; `O=C(c1cc(-c2ccc(Cl)cc2)n(-c2cc(Cl)ccc2Cl)n1)N1CCOCC1`: -0.562.

In turn, `O=C(NCc1ccco1)c1cccc2ccccc12` came in with a z-score of 0.228.

On to `Cc1occc1C(=O)Nc1ccc2c(c1)CCC2`, for which the z-score came out at 0.0166.

The compound `COc1ccc(Cl)cc1NC(=O)COc1cccc(-n2cnnn2)c1` displayed a z-score of 0.206.

`Cc1cccc(NC(=O)Cn2c(=O)n(CCC(=O)NC3CCCC3)c(=O)c3ccccc32)c1` returned a z-score of -0.0709. Next, `Cc1cccn2c(=O)c(/C=N/O)c(N3CCCC3)nc12`: active: -3.27; `CCCc1cc(=O)[nH]c(SCC(=O)c2cc(C)n(C)c2C)n1`: -0.3. Next, `CC1Cc2ccccc2N1C(=O)c1cccnc1` (stereo unspecified): -0.00769; `Cc1ccc(N2CC(C(=O)Nc3nnc(SCC(=O)Nc4nc(C)cs4)s3)CC2=O)cc1` (stereo unspecified): -0.243. The result for `CC1CCCCN1S(=O)(=O)c1ccc(C(=O)Nc2ccccc2-c2nc3ccccc3[nH]2)cc1` (stereo unspecified) reads -0.131.

`O=C(CS(=O)CC(=O)N(CC(=O)NC1CCCC1)c1ccc2c(c1)OCCO2)Nc1ccc(F)cc1` (stereo unspecified) yielded a z-score of 0.905. Next, `COCc1c(Br)c(C)[nH]c(=O)c1C#N`: -0.261; `Cc1ccccc1NS(=O)(=O)c1cc(S(C)(=O)=O)ccc1C`: -0.0302. The result for `CC(NC(=O)C1CCC1)c1ccccc1` (stereo unspecified) reads 0.119; that for `N#CCCn1cc(C(=O)Nc2ccccc2Br)c(-c2cc3ccccc3o2)n1`, -0.0782; that for `C/C(N)=C(/C#N)C(=O)COC(=O)c1cc(-c2ccc(Br)cc2)nc2ccccc12`, 0.118. Next, `O=C1CN(c2nc(-c3ccccc3)c3cc(Br)ccc3n2)c2ccccc2N1`: -0.78. The compound `O=C(CCSc1nccn1Cc1ccccc1)N1CCOCC1` had a z-score of -0.541. The result for `CC1CCc2c(sc3nn[nH]c(=O)c23)C1` (stereo unspecified) reads -0.322; that for `COc1cc(C(=O)NCc2cn3cccc(C)c3n2)cc(OC)c1OC`, -0.0164. `COc1ccc(NC(=O)CSc2nnc(NC(=O)c3ccc(S(=O)(=O)N4CCOCC4)cc3)s2)cc1` had a z-score of -0.163.

Regarding `O=C(c1ccco1)N1CCN(S(=O)(=O)c2ccc(S(=O)(=O)NC3CCCC3)cc2)CC1`, the z-score was -0.274. Next, `O=C(COc1cc(O)c2c(=O)cc(-c3ccccc3)oc2c1)c1ccc(F)cc1`: -0.141.

Take `CC1(C)CC(=O)C2=C(C1)c1c(ccc3ccccc13)NC2c1ccco1` (stereo unspecified): the z-score was -0.0447. The result for `COc1ccc(/C=N/N=C/c2c[nH]c(=O)c(C#N)c2Nc2ccccc2)cc1` reads -0.0461. Regarding `O=C(CSc1cccc[n+]1[O-])Nc1cc(S(=O)(=O)N2CCOCC2)ccc1N1CCOCC1`, the z-score came out at 0.0306. The result for `COC(=O)c1ccnc(/C=N/O)c1` reads -0.26. Next, `O=S(=O)(c1ccc2c(c1)OCCO2)N1CCC(n2nnc3cc(C(F)(F)F)ccc32)CC1`: -0.509; `COc1ccc(-c2cc(C(=O)Nc3cc(C)n(Cc4ccc(Cl)cc4)n3)no2)cc1OC`: -0.883; `Cc1ccc(O)c(N=CC2=C(O)c3ccccc3C2=O)c1`: -0.233. `COc1ccc2[nH]c(=O)c(CN(CCO)C(=O)NCc3ccccc3)cc2c1` came in with a z-score of -0.542. Next, `Cc1ccccc1C(=O)NC(=S)NCC1CCCO1` (stereo unspecified): 0.185; `CCOc1ccc(C(O)Cn2c(=N)n(CCN3CCCCC3)c3ccccc32)cc1` (stereo unspecified): 1.65; `O=C(NNC(=O)c1cccnc1SCc1cccc([N+](=O)[O-])c1)c1ccccn1`: active: 3.29.

In turn, `Cc1cc(/C=N/n2cnnc2)c(C)n1-c1cccc(C(=O)O)c1` yielded a z-score of -0.692.

Consider `Nc1cc[n+](CC(=O)c2ccc3c(c2)OCCO3)cc1`, for which the z-score was -0.0218. Next, `COc1ccc(C(=O)NCCN2CCOCC2)cc1OC`: -0.228.

In the case of `O=C(C=C1CCN(c2ncc(C(F)(F)F)cc2Cl)CC1)NNC(=O)Nc1ccccc1`, the z-score is -0.0967. The result for `CCc1c(C)nc2ncnn2c1N1CCCC(C(=O)NCc2ccco2)C1` (stereo unspecified) reads 0.301; that for `O=C(COC(=O)c1ccccc1NC(=O)c1ccco1)NCC1CCCCC1`, 0.0516; that for `O=C(Nc1cnc2ccccn2c1=O)c1ccc(F)cc1`, -0.0283. The result for `O=C(CSc1nnc(-c2ccccc2)o1)NC1CCS(=O)(=O)C1` (stereo unspecified) reads -0.148; that for `COc1ccc(C(C(=O)OCCN(C)C)c2ccccc2)cc1` (stereo unspecified), 0.325; that for `C=CCN1C(=O)C(C)S/C1=N\S(=O)(=O)c1ccc(Cl)cc1` (stereo unspecified), -0.211.

For the compound `CCN(CC)C(=O)C(=O)c1cccn1-c1cccc(-n2cccc2C(=O)C(=O)N(CC)CC)c1C#N`, the z-score worked out at 0.732. Next, `O=C(NCCCN1CCOCC1)c1c(F)cccc1F`: -0.474. Next, `Brc1ccc(-c2nnc(SCCC3OCCCO3)o2)cc1`: 0.277; `Cc1ccc(-n2nnnc2-c2nc3ccccc3s2)cc1`: active: 6.16; `Cc1ccc(C)c(C(=O)C(C)OC(=O)c2cccn2C)c1` (stereo unspecified): 0.876. The result for `COC(=O)/C(=C\Nc1ccccc1)NC(=O)c1ccc(Cl)cc1Cl` reads -1.12; that for `COc1cccc(C2CC(C(F)(F)F)n3ncc(C(=O)Nc4c(C)n(C)n(-c5ccccc5)c4=O)c3N2)c1` (stereo unspecified), -0.249; that for `O=C(COc1ccccc1C(=O)c1cnn(-c2ccccc2)c1)Nc1ccc2ccccc2c1`, -0.194. In turn, `c1cncc(CNc2nc(N3CCOCC3)nc(N3CCOCC3)n2)c1` came in with a z-score of -0.259. The result for `c1coc(CNc2nc3nonc3nc2NCc2ccco2)c1` reads 0.514; that for `CC(C)Oc1ccc(C(=O)Nc2ccc(C(F)(F)F)n(C)c2=O)cc1`, -0.0243. Next, `CS(=O)(=O)N1CCN(c2ccc(NC(=O)C(c3ccccc3)c3ccccc3)cc2)CC1`: -0.0173; `CCOC(=O)c1nnn(-c2nonc2N)c1COc1cc(C)c(Cl)c(C)c1`: -0.174. As to `O=C1CC2CS(=O)(=O)CC2N1c1ccc(Cl)cc1Cl` (stereo unspecified), the z-score is -0.0651.
